Assay results published in the antibiotic and cytotoxicity screens of Wong et al. (2023).
The list shows a part of the results.

Test system: S. aureus RN4220
Test: growth inhibition call (relative growth <= 0.2)
Details: 50 µM

Growth inhibition call, inactive:
C=CC1CN2CCC1CC2C(O)c1ccnc2ccc(OC)cc12.O=C(O)C(O)C(O)C(O)C(O)CO (stereo not given)
C[C@@H]1CN([C@@H](C)CO)S(=O)(=O)c2ccc(C#Cc3ccccc3)cc2O[C@H]1CN(C)S(=O)(=O)c1ccccc1F
CCOc1cc(OCC)cc(C(=O)N[C@@H](Cc2ccc(-n3cc(-c4ccc(C(=O)NO)s4)nn3)cc2)C(=O)OC)c1
O=C(Nc1ccccc1)C1=C[C@@H](c2ccc3c(c2)Cc2ccccc2-3)C[C@@H](OCc2ccc(CO)cc2)O1
C[C@@H]1CCCCO[C@@H](CN(C)S(=O)(=O)c2ccccc2)[C@@H](C)CN([C@@H](C)CO)C(=O)c2cc(NC(=O)Nc3cccc4ccccc34)ccc2O1
COc1ccc(S(=O)(=O)Nc2ccc3c(c2)C(=O)N([C@H](C)CO)C[C@@H](C)[C@@H](CN(C)C(=O)Nc2c(C)noc2C)OCCCC[C@@H](C)O3)cc1
COc1ccc(cc1)CN1C[C@]2(CN(C2)S(=O)(=O)c2cn(cn2)C)c2c([nH]c3cc(ccc23)OC)[C@H]1CO
Nc1ccc(-n2cc(CCC(=O)NO)nn2)cc1
COc1ccc(S(=O)(=O)N(C)C[C@H]2Oc3ccc(NS(C)(=O)=O)cc3CC(=O)N([C@H](C)CO)C[C@H]2C)cc1
Cc1ccc(S(=O)(=O)Nc2ccc3c(c2)C(=O)N([C@@H](C)CO)C[C@@H](C)[C@H](CN(C)CC2CCCCC2)OCCCC[C@H](C)O3)cc1
COc1cccc(S(=O)(=O)Nc2ccc3c(c2)OC[C@@H](C)N(C(=O)Cc2cccnc2)C[C@@H](C)[C@H](OC)CN(C)C3=O)c1
C[C@@H]1CCCCO[C@@H](CN(C)C(=O)CCC(F)(F)F)[C@@H](C)CN([C@H](C)CO)C(=O)c2cc(NS(=O)(=O)c3ccc(Cl)cc3)ccc2O1
O=C(C[C@H]1C=C[C@@H](NC(=O)CN2CCOCC2)[C@H](CO)O1)NCCc1ccncc1
CCC(=O)NC[C@H](Cc1ccc(OCCc2nc(-c3ccccc3)oc2C)cc1)N/C(C)=C\C(=O)c1ccc(C(F)(F)F)cc1
C[C@@H]1CCCCO[C@@H](CN(C)C(=O)Nc2cccc3ccccc23)[C@H](C)CN([C@@H](C)CO)C(=O)c2cc(NC(=O)Nc3cccc4ccccc34)ccc2O1
Cc1noc(C)c1NC(=O)Nc1ccc2c(c1)C(=O)N([C@H](C)CO)C[C@H](C)[C@H](CN(C)C(=O)Nc1ccc(F)cc1)OCCCC[C@H](C)O2
C[C@H]1CCCCO[C@H](CN(C)C)[C@@H](C)CN([C@@H](C)CO)C(=O)c2cc(NC(=O)CCCN(C)C)ccc2O1
CN1CCN(CCO)C(=O)C12CCN(S(=O)(=O)C1CC1)CC2
COCC(=O)N1[C@@H]2CC[C@H]1COC2
NCCN1CCO[C@H](c2ccccc2)C1
C[C@@H]1CN([C@@H](C)CO)C(=O)c2cc(NC(=O)Nc3cccc4ccccc34)ccc2O[C@@H]1CN(C)C(=O)Nc1ccccc1
C[C@H](CO)N1C[C@H](C)[C@@H](CN(C)Cc2ccc(C(F)(F)F)cc2)Oc2c(NC(=O)c3nc4ccccc4s3)cccc2C1=O
COc1ccc(CNC(=O)c2cc3c(c(-c4cccc(-c5cccc(C#N)c5)c4)n2)[C@@H](CCO)N([S@](=O)C(C)(C)C)C3)cc1
Cc1noc(C)c1S(=O)(=O)Nc1ccc2c(c1)C(=O)N([C@@H](C)CO)C[C@H](C)[C@@H](CN(C)Cc1ccc3c(c1)OCO3)O2
CC12CCC(CC1)C(C)(C)O2
CN1CCN(C)[C@@H](CO)C1
C/C=C/c1cnc2c(c1)C(=O)N([C@@H](C)CO)C[C@H](C)[C@H](CN(C)S(=O)(=O)c1ccc(OC)cc1)O2
C[C@H]1CN([C@@H](C)CO)C(=O)Cc2cc(NC(=O)NC3CCCCC3)ccc2O[C@H]1CN(C)S(=O)(=O)c1cn(C)cn1
C[C@@H]1CCCCO[C@H](CN(C)Cc2ccccc2)[C@H](C)CN([C@H](C)CO)C(=O)c2cc(NC(=O)Nc3ccc(F)cc3)ccc2O1
CC(C)(C)NC(=O)[C@@H]1C[C@@H]2CCCC[C@@H]2CN1C[C@@H](O)[C@H](Cc1ccccc1)NC(=O)[C@H](CC(N)=O)NC(=O)c1ccc2ccccc2n1
Cc1occc1CN
O=C(C[C@@H]1CC[C@@H]2[C@H](COC[C@@H](O)CN2C(=O)c2ccccc2)O1)N1CCOCC1
Cn1c(=O)c2c(ncn2CC(=O)N2CCN(c3ccccc3F)CC2)n(C)c1=O
COc1ccc(S(=O)(=O)Nc2cccc3c2O[C@H](CN(C)Cc2ccc(Cl)c(Cl)c2)[C@H](C)CN([C@H](C)CO)C3=O)cc1
C[C@@H]1CN([C@@H](C)CO)C(=O)c2cccc(NC(=O)c3ccncc3)c2O[C@@H]1CN(C)Cc1ccc(Oc2ccccc2)cc1
C[C@@H]1CN([C@@H](C)CO)C(=O)c2cc(NC(=O)Nc3cccc4ccccc34)ccc2O[C@H]1CN(C)Cc1ccc(Cl)c(Cl)c1
[N-]=[N+]=Nc1ccccc1[C@H]1OC(c2ccc(OCCCO)cc2)=N[C@@]1(CCS(=O)(=O)c1ccccc1)C(=O)NC[C@@H](O)CO
Cc1ccc(S(=O)(=O)N(C)C[C@@H]2OCCCC[C@@H](C)Oc3ccc(NC(=O)c4ccccc4)cc3C(=O)N([C@@H](C)CO)C[C@@H]2C)cc1
COc1ccc(CNC(=O)C[C@@H]2CC[C@@H]3[C@H](COc4ccc(NC(=O)C(C)C)cc4C(=O)N3C)O2)cc1

Growth inhibition call, active:
Oc1cc(C2CCCCC2)cc(C2CCCCC2)c1
